B1: 363F2 hFc-hLTαββ (Fc fusion)
chain: [omitted - human IgG1 Fc with changes]KPAAHLIGDPSKQNSLLWRANTDRAFLQDGFSLSNNSLLVPTSGIYFVYSQVVFSGKAYSPKATSSPLYLAHEVQLFSSQYPFHVPLLSSQKMVYPGLQEPWLHSMYHGAAFQLTQGDQLSTHTDGIPHLVLSPSTVFFGAFALLSPGLPAAHLIGAPLKGQGLGWETTKEQAFLTSGTQFSDAEGLALPQDGLYYLYCLVGYRGRAPPGGGDPQGRSVTLRSSLYRAGGAYGPGTPELLLEGAETVTPVLDPARRQGYGPLWYTSVGFGGLVQLRRGERVYVNISHPDMVDFARGKTFFGAVMVGLSPGLPAAHLIGAPLKGQGLGWETTKEQAFLTSGTQFSDAEGLALPQDGLYYLYCLVGYRGRAPPGGGDPQGRSVTLRSSLYRAGGAYGPGTPELLLEGAETVTPVLDPARRQGYGPLWYTSVGFGGLVQLRRGERVYVNISHPDMVDFARGKTFFGAVMVG
B2: 363F3 hFc-hLTβαβ (Fc fusion)
chain: [omitted - human IgG1 Fc with changes]LSPGLPAAHLIGAPLKGQGLGWETTKEQAFLTSGTQFSDAEGLALPQDGLYYLYCLVGYRGRAPPGGGDPQGRSVTLRSSLYRAGGAYGPGTPELLLEGAETVTPVLDPARRQGYGPLWYTSVGFGGLVQLRRGERVYVNISHPDMVDFARGKTFFGAVMVGKPAAHLIGDPSKQNSLLWRANTDRAFLQDGFSLSNNSLLVPTSGIYFVYSQVVFSGKAYSPKATSSPLYLAHEVQLFSSQYPFHVPLLSSQKMVYPGLQEPWLHSMYHGAAFQLTQGDQLSTHTDGIPHLVLSPSTVFFGAFALLSPGLPAAHLIGAPLKGQGLGWETTKEQAFLTSGTQFSDAEGLALPQDGLYYLYCLVGYRGRAPPGGGDPQGRSVTLRSSLYRAGGAYGPGTPELLLEGAETVTPVLDPARRQGYGPLWYTSVGFGGLVQLRRGERVYVNISHPDMVDFARGKTFFGAVMVG
B3: 363F4 hFc-hLTββα (Fc fusion)
chain: [omitted - human IgG1 Fc with changes]LSPGLPAAHLIGAPLKGQGLGWETTKEQAFLTSGTQFSDAEGLALPQDGLYYLYCLVGYRGRAPPGGGDPQGRSVTLRSSLYRAGGAYGPGTPELLLEGAETVTPVLDPARRQGYGPLWYTSVGFGGLVQLRRGERVYVNISHPDMVDFARGKTFFGAVMVGLSPGLPAAHLIGAPLKGQGLGWETTKEQAFLTSGTQFSDAEGLALPQDGLYYLYCLVGYRGRAPPGGGDPQGRSVTLRSSLYRAGGAYGPGTPELLLEGAETVTPVLDPARRQGYGPLWYTSVGFGGLVQLRRGERVYVNISHPDMVDFARGKTFFGAVMVGKPAAHLIGDPSKQNSLLWRANTDRAFLQDGFSLSNNSLLVPTSGIYFVYSQVVFSGKAYSPKATSSPLYLAHEVQLFSSQYPFHVPLLSSQKMVYPGLQEPWLHSMYHGAAFQLTQGDQLSTHTDGIPHLVLSPSTVFFGAFAL

Legend:
[1] = molecular target: T1, membrane-bound extracellular domain of mouse LTβR (mLTβR-CD4TM-GFP) (mouse, UniProt P50284 31-223); assay: flow cytometry on HEK 293T cells transiently transfected with mouse LTβR ecd-CD4TM-GFP (row 'mLTBR GFP'); '0.5 ug/ml' printed at the upper left of the figure; APC-conjugated Fc secondary
T1 construct: extracellular domain; also called mouse LTβR ecd, CD4TM and GFP; mLThR-GFP; not shown: CD4 transmembrane domain and GFP fused after the extracellular domain
T1 sequence (P50284 31-223): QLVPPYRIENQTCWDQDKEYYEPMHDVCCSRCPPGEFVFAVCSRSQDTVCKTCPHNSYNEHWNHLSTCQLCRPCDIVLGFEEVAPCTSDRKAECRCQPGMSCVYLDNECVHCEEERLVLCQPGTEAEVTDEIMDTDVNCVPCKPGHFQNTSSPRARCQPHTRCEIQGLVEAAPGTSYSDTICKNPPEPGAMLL
Method: (§1) To test the binding of the different c-terminal human lymphotoxin heterotrimer constructs to human and mouse LTβR, HEK 293T cells were transiently transfected with cDNA expression vectors encoding cDNA for human or mouse LTβR ecd, CD4TM and GFP. Cells were then incubated with the various human lymphotoxin constructs 363F2, 363F3, or 363F4, washed and stained with APC-conjugated Fc secondary antibody. Mouse (deglycosylated) IgG1 Fc-mouse lymphotoxin-αββ heterotrimer fusion protein 363F1 was also tested. Binding of the lymphotoxin constructs was then assessed by flow cytometry using a Canto II FACS instrument (BD Biosciences) and analyzed using FlowJo software.

[2] = molecular target: T2, human LTβR ecd, CD4TM and GFP (human, UniProt P36941 31-227); assay: flow cytometry on HEK 293T cells transiently transfected with human LTβR ecd-CD4TM-GFP (row 'hLTBR GFP'); '0.5 ug/ml' printed at the upper left of the figure; APC-conjugated Fc secondary
T2 construct: extracellular domain; also called hLTβR; hLThR-GFP; not shown: CD4 transmembrane domain and GFP fused after the extracellular domain
T2 sequence (P36941 31-227): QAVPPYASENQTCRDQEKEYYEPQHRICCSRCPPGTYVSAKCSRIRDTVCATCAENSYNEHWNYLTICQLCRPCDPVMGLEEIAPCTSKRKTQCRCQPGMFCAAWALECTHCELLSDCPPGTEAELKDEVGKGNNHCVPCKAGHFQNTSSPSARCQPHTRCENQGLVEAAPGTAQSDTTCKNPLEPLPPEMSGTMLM
Method: as §1

| Binder | MFI [1] | MFI [2] |
| --- | --- | --- |
| B1 | 8100 | 3680 |
| B2 | 8940 | 3980 |
| B3 | 9060 | 4770 |

From patent US20180222958A1 (ONCOMED PHARMACEUTICALS, published 2018)
